Results taken from paper PMC4336329 (PLoS ONE, 2015).
Screen size: about 310,000 compounds; about 14,000 (4.5%) showed an effect of 50% or more. Effects have a minus sign here. The list shows a part of the results.

These compounds were tested against human ether-à-go-go-related gene (hERG) potassium channel (human, UniProt Q12809) (assay: primary screen, population patch clamp on CHO cells stably expressing hERG).
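Note: peak tail current of the secondary pulse compared with the same well before compound.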

Sequence of human ether-à-go-go-related gene (hERG) potassium channel (Q12809 whole entry, looked up): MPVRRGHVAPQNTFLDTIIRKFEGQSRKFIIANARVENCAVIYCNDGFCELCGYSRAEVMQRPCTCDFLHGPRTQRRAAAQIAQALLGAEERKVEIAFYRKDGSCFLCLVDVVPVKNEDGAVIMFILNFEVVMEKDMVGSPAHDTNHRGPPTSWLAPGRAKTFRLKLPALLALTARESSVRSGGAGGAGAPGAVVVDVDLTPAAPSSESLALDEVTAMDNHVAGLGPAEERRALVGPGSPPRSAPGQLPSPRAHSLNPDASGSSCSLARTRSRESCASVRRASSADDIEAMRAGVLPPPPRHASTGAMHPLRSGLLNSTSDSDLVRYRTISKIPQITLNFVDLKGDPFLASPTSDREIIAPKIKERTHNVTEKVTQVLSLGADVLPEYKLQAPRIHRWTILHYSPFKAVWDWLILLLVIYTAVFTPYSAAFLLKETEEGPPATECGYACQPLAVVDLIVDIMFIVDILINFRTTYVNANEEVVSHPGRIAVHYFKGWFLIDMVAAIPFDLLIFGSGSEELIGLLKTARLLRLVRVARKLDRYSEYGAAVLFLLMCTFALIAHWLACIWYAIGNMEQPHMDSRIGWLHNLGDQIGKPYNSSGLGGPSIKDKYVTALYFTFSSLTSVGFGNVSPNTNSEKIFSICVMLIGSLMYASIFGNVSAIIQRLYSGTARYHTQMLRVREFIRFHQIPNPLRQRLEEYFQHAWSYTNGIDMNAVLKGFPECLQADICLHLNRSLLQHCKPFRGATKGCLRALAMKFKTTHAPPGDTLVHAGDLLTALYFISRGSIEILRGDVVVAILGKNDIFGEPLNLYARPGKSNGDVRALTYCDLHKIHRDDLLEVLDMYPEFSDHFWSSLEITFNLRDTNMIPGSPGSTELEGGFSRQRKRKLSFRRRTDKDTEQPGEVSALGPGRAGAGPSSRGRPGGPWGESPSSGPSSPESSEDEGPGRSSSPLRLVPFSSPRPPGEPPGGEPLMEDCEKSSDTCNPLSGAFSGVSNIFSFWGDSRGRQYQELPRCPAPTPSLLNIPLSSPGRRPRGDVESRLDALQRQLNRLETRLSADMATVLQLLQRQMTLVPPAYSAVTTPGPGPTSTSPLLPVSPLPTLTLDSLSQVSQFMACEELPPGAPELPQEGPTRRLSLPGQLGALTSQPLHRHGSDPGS

Row | Compound | hERG current change (%, negative = inhibition) at 10uM
1 | Cc1ccc(CNC(=O)C2CCC(=O)N2C(C)C)cc1 (centres unmarked) | 15.8%
2 | CCc1nc(NC(C)(C)C)c2cnn(-c3ccccc3)c2n1 | 15%
3 | COc1ccc(S(=O)(=O)NC(C)C(=O)NCc2ccc3c(c2)OCO3)cc1OC (centres unmarked) | 5.79%
4 | O=C(NNC(=O)c1ccccc1Br)c1ccc2nc[nH]c2c1 | 10.7%
5 | Cc1cc(O)c(C(=O)/C=C/c2cccc([N+](=O)[O-])c2)c(=O)o1 | 2.81%
6 | CCCCn1c(N(CCOC(C)=O)C(C)=O)nc2ccccc21 | -5.88%
7 | COc1ccc(CCNC(=O)CCNS(=O)(=O)c2cccc(Cl)c2)cc1OC | 5.73%
8 | COc1ccccc1NC(=O)Nc1nnc(Cc2ccc(F)cc2)s1 | 16%
9 | CCCNC(=O)N1CCN(c2nc(C(C)C)c3c(c2C#N)CC(C)(C)OC3)CC1 | 4.84%
10 | Cc1ccc(/C(O)=C2/C(=O)C(=O)N(c3ccccn3)C2c2ccc(F)cc2)cc1 (centres unmarked) | 9.62%
11 | CO[C@@H]1[C@@H](O[C@@H]2O[C@H](C)[C@@H](O[C@H]3C[C@@](C)(OC(=O)CC(C)C)[C@@H](O)[C@H](C)O3)[C@H](N(C)C)[C@H]2O)[C@@H](CC=O)C[C@@H](C)[C@@H](O)C=CC=CC[C@@H](C)OC(=O)C[C@H]1OC(C)=O | -6.51%
12 | CCCCOC(=O)c1ccc(NC(=O)c2ccc(F)cc2F)cc1 | 11.9%
13 | CCNc1ccc(C(=O)OCC(=O)NC(=O)NCC(C)C)cc1[N+](=O)[O-] | 10.5%
14 | Cc1ccc(-n2c(Cc3noc4ccccc34)n[nH]c2=S)cc1 | 8.59%
15 | CCCCOc1ccc(N2C(=O)CC(N(CCc3ccccc3)C(=O)/C=C/C(=O)O)C2=O)cc1 (centres unmarked) | 19.3%
16 | CC(=O)Nc1ccc(S(=O)(=O)NC2CCCCCC2)cc1 | 18.3%
17 | Cc1cc(C)n(-c2ccc(C(=O)NC(C)C)cc2)n1 | -12.1%
18 | CCCCOc1cccc(C(=O)Nc2ccccc2N2CCCC2)c1 | 5.59%
19 | Cc1ccc(NC(=O)CSc2nnc(CNC(=O)c3ccco3)o2)cc1 | 15.6%

Row | Compound | hERG current change (%, negative = inhibition) at 10uM
20 | CC(NC(=O)Nc1ccc(F)cc1)c1ccc2c(c1)OCO2 (centres unmarked) | 15.5%
21 | Cc1ccc(NC(=O)c2noc3c2CC(C(C)(C)C)CC3)cc1 (centres unmarked) | 13.2%
22 | C[n+]1cn(/N=C/c2ccccc2)c2ccccc21.[I-] | -11.2%
23 | Cc1ccc(N=c2c([N+](=O)[O-])nn(-c3ccc(Cl)cc3)n2O)cc1C | 0.875%
24 | O=S(=O)(/C=C/c1cccc(Br)c1)N1CCOCC1 | -6.85%
25 | CC1(C)Cc2c(cnn2-c2ccccc2)C(NC(=O)CCCn2cncn2)C1 (centres unmarked) | -1.88%
26 | O=c1c2c([N+](=O)[O-])cc([N+](=O)[O-])cc2sn1-c1ccc(Br)cc1 | 20.3%
27 | COC(=O)Cn1c2ccc(OC)cc2c2nc(C)sc21 | 3.32%
28 | COc1ccc(NC(=O)Nc2nccs2)cc1 | -6.52%
29 | O=C(NC1CCCCC1)c1ccc(S(=O)(=O)N2CCCC2)cc1 | 1.57%
30 | CC(C)CC(c1nnnn1C1CCCC1)N1CCC(C(N)=O)CC1 (centres unmarked) | 15%
31 | Cc1c(/C=N\NC(=O)C2COc3ccc(C(C)(C)C)cc3O2)c2ccccc2n1C (centres unmarked) | 14%
32 | C/C(=N\NC(=O)C1CC1)c1cccc(NC(=O)c2cccc(Cl)c2)c1 | 13.1%
33 | CC(=O)NC12CC3CC(C1)CC(C(=O)N(C)CC(=O)Nc1ccccc1Cl)(C3)C2 | -9.59%
34 | O=C(Nc1ccccc1)NC1CC2CCC(C1)N2Cc1nnnn1Cc1ccc2c(c1)OCO2 (centres unmarked) | -13.5%
35 | O=c1c2ccccc2nc(-c2ccco2)n1-c1nc2ccccc2s1 | 6%
36 | Cc1ccccc1-c1ocnc1C(=O)Nc1ccccc1NC(=O)c1ccccn1 | 16.3%
37 | COc1ccc(CN2C(=O)CSC2c2ccncc2)cc1 (centres unmarked) | 6.21%
38 | Cc1ccc(S(=O)(=O)N2CCOC2CNC(=O)C(=O)NCc2ccco2)cc1 (centres unmarked) | -8.26%

Row | Compound | hERG current change (%, negative = inhibition) at 10uM
39 | O=C(CSc1nc(=O)n(CCN2CCOCC2)c2c1CCCC2)Nc1ccc(F)cc1F | -35.6%
40 | CCn1c(CNC(=O)c2cccc(C)c2)nc2ccccc21 | -5.38%
41 | COc1cc2c(cc1OC)-c1cc(NC3CCCCCCC3)nc(=O)n1CC2 | -28.6%
42 | O=C1O/C(=C/C(=O)N2CCOCC2)c2ccccc21 | 9.11%
43 | OCCCc1nc2ccccc2n1CCCCOc1ccccc1 | -57.2%
44 | CN(C)CCCNCCCNC(=O)/C=N/O | 10.2%
45 | CCN(CC)N=Nc1cccc(NC(C)=O)c1 | 0.363%
46 | Cc1cc(C)c(NC(=O)CS(=O)CC(=O)N2CCN(c3ccc(F)cc3)CC2)c(C)c1 (centres unmarked) | -14.8%
47 | COc1ccc(C2C([N+](=O)[O-])=C(C)N(C)C(=O)N2C)cc1OC (centres unmarked) | 22.7%
48 | CCc1ccc(NC(=O)CSc2nc3c(c(=O)n(C)c(=O)n3C)n2C)cc1 | -13.1%
49 | CCCCCOC(=O)C1[C@H]2C(=O)N(CCCOC)C[C@]23C=C[C@H]1O3 (some centres unmarked) | -2.67%
50 | CS(=O)(=O)N1Cc2ccccc2CC1C(=O)OCC(=O)Nc1ccc2ccccc2c1 (centres unmarked) | 7.36%
51 | CCCn1c(C(C)NC(C)=O)nc2ccccc21 (centres unmarked) | 8.97%
52 | C[C@H](NC(=O)c1ccccc1)C(=O)OCC(=O)c1c[nH]c2ccccc12 | -27.2%
53 | O=C(c1[nH]ncc1-c1ccc(Cl)cc1)C1CO1 (centres unmarked) | 8.61%
54 | CC12CCC(C(=O)NC3CCCC3)(CC1=O)C2(C)C (centres unmarked) | 8.75%
55 | O=C1C2C3c4ccccc4C(c4ccccc43)C2C(=O)N1Cc1ccco1 (centres unmarked) | 5.12%
56 | Cn1c(=O)n(C)c2cc([N+](=O)[O-])c(N3CCN(S(=O)(=O)c4ccccc4)CC3)cc21 | -8.67%
